These results are taken from the supplement of paper PMC9174493.

The list shows a part of the results. Single values of this set are uncertain. Values with irradiation are relative to irradiated vehicle.
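Also: viability correction based on the alamar blue assay, with concentrations leaving 10% survival or less dropped.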

The subject of this assay is A549-Dual. Description: NF-kB reporter (SEAP) activity, viability-corrected, relative to vehicle (fold change vs vehicle); higher = more activation of STING-IRF / NF-kB immune response reporter. The following applies: 10 µM; irradiation: 8 Gy/4 fr.
For the compound `Nc1ncnc2c1ncn2C1OC(CO)C(O)C1O` (stereo not given) [Vidarabine], the NF-kB reporter was 0.71.

Regarding `Cc1c(C)c2c(c(C)c1O)CCC(C)(CCCC(C)CCCC(C)CCCC(C)C)O2` (racemic) [(±)-α-Tocopherol], the NF-kB reporter is 0.798. With `CC(CNC(=O)c1cccnc1)NC(=O)c1cccnc1` (stereo not given) [Nicaraven], the NF-kB reporter amounted to 1.06. In the case of `CCC1OC(=O)C(C)C(OC2CC(C)(OC)C(O)C(C)O2)C(C)C(OC2OC(C)CC(N(C)C)C2O)C(C)(O)CC(C)CNC(C)C(O)C1(C)O` (stereo not given) [Azathramycin], the NF-kB reporter was determined as 0.712. The compound `COc1ccc(/C=C/C(=O)Nc2ccccc2C(=O)O)cc1OC` [Tranilast] registered an NF-kB reporter of 0.872. With `CSCCNc1nc(SCCC(F)(F)F)nc2c1ncn2C1OC(COP(=O)([O][Na])OP(=O)([O][Na])C(Cl)(Cl)P(=O)([O][Na])[O][Na])C(O)C1O` (stereo not given) [Cangrelor Tetrasodium], the NF-kB reporter came out at 0.956.

Compound `CC(=O)OC1(C(C)=O)CCC2C3C=C(Cl)C4=CC(=O)CCC4(C)C3CCC21C` (stereo not given) [Chlormadinone acetate] displayed an NF-kB reporter of 0.406. As to `CCCN(CCC)CCc1cccc2c1CC(=O)N2.Cl` [Ropinirole HCl], the NF-kB reporter was determined as 0.527. Regarding `CN(C)CCCN1c2ccccc2Sc2ccccc21.Cl` [Promazine hydrochloride], the NF-kB reporter was 0.802. For the compound `CCCCc1oc2ccccc2c1C(=O)c1cc(I)c(OCCN(CC)CC)c(I)c1.Cl` [Amiodarone HCl], the NF-kB reporter turned out to be 0.644.

Compound `Cc1c(C(=O)NN2CCCCC2)nn(-c2ccc(Cl)cc2Cl)c1-c1ccc(Cl)cc1` [Rimonabant] yielded an NF-kB reporter of 0.591. To `CCCCCCCCCCCCCCCC(=O)OC/C=C(C)/C=C/C=C(C)/C=C/C1=C(C)CCCC1(C)C` [Retinyl (Vitamin A) Palmitate] belongs 0.776. To `C[N+]1(C)CCC(OC(=O)C(O)(c2ccccc2)C2CCCC2)C1.[Br-]` (stereo not given) [Glycopyrrolate] belongs 0.87; to `Cc1ncc(C[n+]2csc(CCO)c2C)c(N)n1.Cl.[Cl-]` [Thiamine HCl (Vitamin B1)], 0.77; to `NCCCCCC(=O)O` [(6-)ε-Aminocaproic acid], 0.8. Compound `CC(C)Nc1cccnc1N1CCN(C(=O)c2cc3cc(NS(C)(=O)=O)ccc3[nH]2)CC1.CS(=O)(=O)O` [Delavirdine (mesylate)] displayed an NF-kB reporter of 0.74. In the case of `CC(C)c1c(C(=O)Nc2ccccc2)c(-c2ccccc2)c(-c2ccc(F)cc2)n1CCC(O)CC(O)CC(=O)[O-].CC(C)c1c(C(=O)Nc2ccccc2)c(-c2ccccc2)c(-c2ccc(F)cc2)n1CCC(O)CC(O)CC(=O)[O-].[Ca+2]` (stereo not given) [Atorvastatin Calcium], the NF-kB reporter was 0.762. For `O=C(O)Cc1cc(I)c(Oc2ccc(O)c(I)c2)c(I)c1` [Tiratricol], the NF-kB reporter is 0.749. `CN1CCCN=C1/C=C/c1cccs1.O=C(O)c1cc2ccccc2c(Cc2c(O)c(C(=O)O)cc3ccccc23)c1O` [Pyrantel Pamoate]: the NF-kB reporter was 0.943. The compound `CC1OC(OCC2OC(Oc3c(-c4ccc(O)c(O)c4)oc4cc(O)cc(O)c4c3=O)C(O)C(O)C2O)C(O)C(O)C1O` (stereo not given) [Rutin hydrate] yielded an NF-kB reporter of 0.743. The compound `C[C@H](O)C(=O)O` [L-Lactic acid] returned an NF-kB reporter of 1.1. Turning to `CN(CCO)CC(O)Cn1cnc2c1c(=O)n(C)c(=O)n2C.O=C(O)c1cccnc1` (stereo not given) [Xanthinol Nicotinate], the NF-kB reporter came out at 0.919.

In turn, `COc1cc(O)c2c(c1)oc(=O)c1c3cc(O)c(O)cc3oc21` [Wedelolactone] displayed an NF-kB reporter of 0.682. The compound `CN1CCN(CCCN2c3ccccc3Sc3ccc(C(F)(F)F)cc32)CC1.Cl.Cl` [Trifluoperazine 2HCl] gave an NF-kB reporter of 0.764. Next, `O=C(/C=C/c1ccccc1)OCc1ccccc1` [Benzyl cinnamate]: 0.768; `CC(O)Cn1cnc2c1c(=O)n(C)c(=O)n2C` (stereo not given) [Proxyphylline]: 1.2. Next, `CC(C)NCC(O)COc1ccc(CCOCC2CC2)cc1.Cl` (stereo not given) [Betaxolol HCl]: 0.929; `CC(C)(C(=O)O)c1ccc(C(O)CCCN2CCC(C(O)(c3ccccc3)c3ccccc3)CC2)cc1.Cl` (stereo not given) [Fexofenadine HCl]: 0.522; `C/C=C/c1ccc(O)c(OC)c1` [Isoeugenol]: 1.16.

The compound `CN1CC(=O)NC1=N` [Creatinine] returned an NF-kB reporter of 0.744. To `Nc1ccc(S(=O)(=O)Nc2nccs2)cc1` [Sulfathiazole] belongs 1.17. Regarding `CCCSc1nc(NC2CC2c2ccc(F)c(F)c2)c2nnn(C3CC(OCCO)C(O)C3O)c2n1` (stereo not given) [Ticagrelor], the NF-kB reporter amounted to 0.659. Take `CC(=O)NS(=O)(=O)c1ccc(NC(=O)c2ccccc2C(=O)O)cc1` [Phthalylsulfacetamide]: the NF-kB reporter stood at 0.904. `OCC1OC(O)C(O)C(O)C1O` [D-Mannose] displayed an NF-kB reporter of 0.812. `CC(C)(CO)C(O)C(=O)NCCC(=O)NCCSSCCNC(=O)CCNC(=O)C(O)C(C)(C)CO` [D-Pantethine] returned an NF-kB reporter of 0.738. Next, `CC1OC(OC2C(Oc3cc(O)c(C(=O)CCc4ccc(O)cc4)c(O)c3)OC(CO)C(O)C2O)C(O)C(O)C1O` (stereo not given) [Naringin Dihydrochalcone]: 1.17; `CC(=O)OCC(=O)C1(O)CCC2C3CCC4=CC(=O)CCC4(C)C3C(O)CC21C` (stereo not given) [Hydrocortisone acetate]: 0.558; `NCC1CCC(C(=O)O)CC1` (stereo not given) [Tranexamic Acid]: 1.09. `CCN(CC)CC(=O)Nc1c(C)cccc1C` [Lidocaine]: the NF-kB reporter stood at 0.646.

In the case of `CC(C)(Sc1cc(C(C)(C)C)c(O)c(C(C)(C)C)c1)Sc1cc(C(C)(C)C)c(O)c(C(C)(C)C)c1` [Probucol], the NF-kB reporter was 0.663.
